Laboratory results taken from paper PMC9911399, “Two distinct binding modes provide the RNA-binding protein RbFox with extraordinary sequence specificity”.
Residue numbers refer to the chain shown, from its start. Some of the results follow.

B1: UCAAUUG (DNA:RNA)
RNA: GGGAGACCGGAAUUCAGAUUGUCCUCAAUUGUUAAAUCCCGUCGUAGCCACCA
DNA 1: CAATCTGAATTCCGGTCTCCC
DNA 2: TGGTGGCTACGACGGGATT
B2: ACCAAAG (DNA:RNA)
RNA: B1 RNA with U25A, A27C, U29A, U30A
DNA 1: CAATCTGAATTCCGGTCTCCC
DNA 2: TGGTGGCTACGACGGGATT
B3: GUUUACG (DNA:RNA)
RNA: B1 RNA with U25G, C26U, A27U, A28U, U29A, U30C
DNA 1: CAATCTGAATTCCGGTCTCCC
DNA 2: TGGTGGCTACGACGGGATT
B4: UACUAGG (DNA:RNA)
RNA: B1 RNA with C26A, A27C, A28U, U29A, U30G
DNA 1: CAATCTGAATTCCGGTCTCCC
DNA 2: TGGTGGCTACGACGGGATT
B5: CCAGCCU (DNA:RNA)
RNA: B1 RNA with U25C, A28G, U29C, U30C, G31U
DNA 1: CAATCTGAATTCCGGTCTCCC
DNA 2: TGGTGGCTACGACGGGATT
B6: AGAGUAC (DNA:RNA)
RNA: B1 RNA with U25A, C26G, A28G, U30A, G31C
DNA 1: CAATCTGAATTCCGGTCTCCC
DNA 2: TGGTGGCTACGACGGGATT
B7: UACUUAG (DNA:RNA)
RNA: B1 RNA with C26A, A27C, A28U, U30A
DNA 1: CAATCTGAATTCCGGTCTCCC
DNA 2: TGGTGGCTACGACGGGATT
B8: GAUGCUG (DNA:RNA)
RNA: B1 RNA with U25G, C26A, A27U, A28G, U29C
DNA 1: CAATCTGAATTCCGGTCTCCC
DNA 2: TGGTGGCTACGACGGGATT
B9: UUGAUCA (DNA:RNA)
RNA: B1 RNA with C26U, A27G, U30C, G31A
DNA 1: CAATCTGAATTCCGGTCTCCC
DNA 2: TGGTGGCTACGACGGGATT
B10: GUAUACC (DNA:RNA)
RNA: B1 RNA with U25G, C26U, A28U, U29A, U30C, G31C
DNA 1: CAATCTGAATTCCGGTCTCCC
DNA 2: TGGTGGCTACGACGGGATT
B11: AAUUUAA (DNA:RNA)
RNA: B1 RNA with U25A, C26A, A27U, A28U, U30A, G31A
DNA 1: CAATCTGAATTCCGGTCTCCC
DNA 2: TGGTGGCTACGACGGGATT
B12: AGAGCCU (DNA:RNA)
RNA: B1 RNA with U25A, C26G, A28G, U29C, U30C, G31U
DNA 1: CAATCTGAATTCCGGTCTCCC
DNA 2: TGGTGGCTACGACGGGATT
B13: CUUCGUU (DNA:RNA)
RNA: B1 RNA with U25C, C26U, A27U, A28C, U29G, G31U
DNA 1: CAATCTGAATTCCGGTCTCCC
DNA 2: TGGTGGCTACGACGGGATT
B14: AUUUGGU (DNA:RNA)
RNA: GGGAGACCGGAAUUCAGAUUGUCCAUUUGGUUUAAAUCCCGUCGUAGCCACCA
DNA 1: CAATCTGAATTCCGGTCTCCC
DNA 2: TGGTGGCTACGACGGGATT
B15: CUUGGAA (DNA:RNA)
RNA: B14 RNA with A25C, U28G, G30A, U31A
DNA 1: CAATCTGAATTCCGGTCTCCC
DNA 2: TGGTGGCTACGACGGGATT
B16: CUUUGUU (DNA:RNA)
RNA: B14 RNA with A25C, G30U
DNA 1: CAATCTGAATTCCGGTCTCCC
DNA 2: TGGTGGCTACGACGGGATT
B17: GCGCAGG (DNA:RNA)
RNA: B1 RNA with U25G, A27G, A28C, U29A, U30G
DNA 1: CAATCTGAATTCCGGTCTCCC
DNA 2: TGGTGGCTACGACGGGATT
B18: CCCCAUU (DNA:RNA)
RNA: B1 RNA with U25C, A27C, A28C, U29A, G31U
DNA 1: CAATCTGAATTCCGGTCTCCC
DNA 2: TGGTGGCTACGACGGGATT
B19: AUUUGAC (DNA:RNA)
RNA: B14 RNA with G30A, U31C
DNA 1: CAATCTGAATTCCGGTCTCCC
DNA 2: TGGTGGCTACGACGGGATT
B20: CUAUAUU (DNA:RNA)
RNA: B14 RNA with A25C, U27A, G29A, G30U
DNA 1: CAATCTGAATTCCGGTCTCCC
DNA 2: TGGTGGCTACGACGGGATT

Target: T1, RBFOX1 RRM RbFoxmut (Fox-RRM*) (Homo sapiens, UniProt Q9NWB1 109-208, R118D;E147R;N151S;E152T)
T1 sequence: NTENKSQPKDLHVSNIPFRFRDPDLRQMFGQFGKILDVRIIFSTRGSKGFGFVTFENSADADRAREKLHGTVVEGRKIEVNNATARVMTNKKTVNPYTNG
Experiment: EMSA; HiTS-Eq, 1 nM pool, 10 min; buffer printed only for the single-RNA assays: 10 mM Tris pH 7.5, 150 mM NaCl, 3.4 mM EDTA, 0.001% NP-40, 30 C
Details: tags: His6 N-terminal (pET28a); label: 5' 32P
In short: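 Purified wild-type or mutant RbFox RRM at increasing concentrations was equilibrated with 1 nM of 5′-radiolabelled RNA carrying 7 randomized nucleotides for 10 min in 50 µL. Unbound RNA was separated by 8% native PAGE and sequenced. Relative association constants came from read-count changes of each RNA species compared with the control reaction, normalised to the cognate motif.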

Binder | binding signal
B1 | 0.0766 KA relative to UGCAUGU
B2 | 0.122 KA relative to UGCAUGU
B3 | 0.123 KA relative to UGCAUGU
B4 | 0.0701 KA relative to UGCAUGU
B5 | 0.0677 KA relative to UGCAUGU
B6 | 0.101 KA relative to UGCAUGU
B7 | 0.0858 KA relative to UGCAUGU
B8 | 0.1 KA relative to UGCAUGU
B9 | 0.0891 KA relative to UGCAUGU
B10 | 0.0915 KA relative to UGCAUGU
B11 | 0.0846 KA relative to UGCAUGU
B12 | 0.0937 KA relative to UGCAUGU
B13 | 0.131 KA relative to UGCAUGU
B14 | 0.129 KA relative to UGCAUGU
B15 | 0.117 KA relative to UGCAUGU
B16 | 0.117 KA relative to UGCAUGU
B17 | 0.106 KA relative to UGCAUGU
B18 | 0.0919 KA relative to UGCAUGU
B19 | 0.119 KA relative to UGCAUGU
B20 | 0.076 KA relative to UGCAUGU
